Experimental data taken from US20230272114A1 (published 2023).

Molecular target: S267E
Experiment: Biacore SPR

B1: V158 FcγRIIIa (receptor)
chain: not shown
Binder B1 has a Kd of 690 nM.
